Reference: PubChem BioAssay AID886 (National Center for Advancing Translational Sciences (NCATS), 2007)
In all, about 73,000 compounds went through this assay and about 2,500 (3.4%) were called active. The inconclusive results got no clear call from the source; some entries with a clear call stand among them for comparison. The call rests on the fitted dose curve; in most records, active means well fitted inhibition curve with a large enough effect; inconclusive means small, poorly fitted or top-dose-only effect; inactive means no such curve, though single readings can be large or run the other way. Potencies beside an inconclusive call are fits to weak or partial responses and may not hold up.

target: 3-hydroxyacyl-CoA dehydrogenase type-2 (Homo sapiens) (UniProt Q99714); experiment: qHTS Assay for Inhibitors of HADH2 (Hydroxyacyl-Coenzyme A Dehydrogenase, Type II); details: recombinant HADH2, NADH fluorescence, beta-hydroxybutyryl-CoA; activity change, negative = inhibition: at 57.1 µM (top of the series); further: nearly all actives have a fitted effect of over 60% in size
Method in brief: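 Activity measured as NADH fluorescence gain (360/450 nm), taken as the change between first and last reads of a 4-min kinetic run. Conditions: pH 9.0 Tris buffer, 20 nM E. coli-expressed His-tagged enzyme, 1 mM NAD+, 90 uM beta-hydroxybutyryl-CoA; 15-min compound preincubation.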
On the % scale 0 is the no-effect control and ±100 the full control effect; potency means the concentration at half of the fitted maximal effect; tags describe the fitted curve by direction and shape.

Sequence of UniProt Q99714 (Q99714 whole entry, looked up): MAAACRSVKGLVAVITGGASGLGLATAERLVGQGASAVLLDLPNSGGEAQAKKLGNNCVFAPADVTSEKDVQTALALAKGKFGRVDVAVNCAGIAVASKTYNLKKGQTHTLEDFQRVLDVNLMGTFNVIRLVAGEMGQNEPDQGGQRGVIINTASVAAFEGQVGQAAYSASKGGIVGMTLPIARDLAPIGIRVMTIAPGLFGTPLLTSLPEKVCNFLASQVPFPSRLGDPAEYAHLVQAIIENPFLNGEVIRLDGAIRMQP
Sequence of UniProt Q99714 (Q99714 whole entry, looked up): as above

| SMILES | Potency | activity change, negative = inhibition |
| --- | --- | --- |
| C=CCc1cccc(/C=N/c2ncccc2O)c1O | inconclusive: 15.8 µM [inhibitor, partial curve] | – |
| CN(Cc1ccco1)c1nc(-c2ccccc2C(F)(F)F)nc2ccccc12 | inconclusive: 12.6 µM [inhibitor, partial curve] | – |
| Cc1cccc(NC(=O)Nc2cc(C)on2)c1 | – | inactive: 23.2% |
| CCOC(=O)c1nnn(-c2nonc2N)c1CN(C)Cc1ccccc1 | – | inactive: 1.77% |
| COc1ccc(-c2ccc(-c3nnc(-c4cc(OC)ccc4OC)o3)cc2)cc1 | active: 7.94 µM | – |
| COC(=O)Cc1c(C)nc2nc(NCc3c(F)cccc3Cl)[nH]n2c1=O | – | inactive: -0.753% |
| O=C(O)c1cn(-c2ccccc2)nc1-c1cccnc1 | – | inactive: -1.95% |
| COc1cccc(Cn2c(=O)c(-c3ccc(Cl)cc3)nc3cnc(N(C)C)nc32)c1 | – | inactive: -4.72% |
| C(=N\n1cnnc1)/c1ccc2c(c1)OCCO2 | inconclusive: 25.1 µM [inhibitor, single point] | – |
| CCOC(=O)c1cc(-c2ccc3c(c2)OCCO3)nc2c1c(C)nn2CCC#N | inconclusive: 39.8 µM [inhibitor, single point] | – |
| CS(=O)(=O)c1ccc2nc(NC(=O)Oc3ccccc3)sc2c1 | – | inactive: -12.5% |
| O=C(CCC1N=C2c3ccccc3N=C(SCc3ccccc3Cl)N2C1=O)NCc1ccco1 (stereo not drawn) | inconclusive: 39.8 µM [inhibitor, single point] | – |
| O=c1c2c(-c3ccccc3)csc2nc2n1CCC2 | inconclusive: 10 µM [inhibitor, partial curve] | – |
| Cc1noc(C)c1-c1nccc(NCc2ccccc2)n1 | active: 15.8 µM | – |
| Nc1nncn1C(=O)c1cccs1 | inconclusive: 39.8 µM [inhibitor, single point] | – |
| O=C(O)c1ccccc1-c1ccccc1C(=O)Nc1ccc2c(c1)Cc1ccccc1-2 | – | inactive: -5.81% [at 11.4 µM] |
| Cc1cc(C(=O)NCCC2=CCCCC2)c(C)o1 | inconclusive: 39.8 µM [inhibitor, single point] | – |
| O=C(CSc1nnc2ccccn12)NC(=O)NC1CCCC1 | – | inactive: 2.19% |
| C=CCOC(=O)C1CC=CCC1C(=O)Oc1ccc(F)cc1F (stereo not drawn) | – | inactive: -10.9% |
| Cc1ccc2oc(-c3ccccc3)c(O)c(=O)c2c1 | – | inactive: 8.12% |
| Cn1ccnc1C(O)c1cc(C(C)(C)C)c(O)c(C(C)(C)C)c1 (stereo not drawn) | inconclusive: 5.01 µM [inhibitor, full curve] | – |
| CCOC(=O)c1[nH]c2ccc(OC)cc2c1NC(=O)CN1CCC2(CC1)OCCO2 | inconclusive: 31.6 µM [inhibitor, single point] | – |
| O=C(O)c1cc(S(=O)(=O)N2CCOCC2)c(Sc2ccccn2)cc1Sc1ccccn1 | – | inactive: -14.1% |
